Results as given in patent US20200181257A1 (Chugai, published 2020).

T1: human Fcγ receptor hFcgRIIa (H) (human, UniProt P12318 36-217)
T1 construct: also called FcγRIIa (type H); FcγIIA
T1 sequence: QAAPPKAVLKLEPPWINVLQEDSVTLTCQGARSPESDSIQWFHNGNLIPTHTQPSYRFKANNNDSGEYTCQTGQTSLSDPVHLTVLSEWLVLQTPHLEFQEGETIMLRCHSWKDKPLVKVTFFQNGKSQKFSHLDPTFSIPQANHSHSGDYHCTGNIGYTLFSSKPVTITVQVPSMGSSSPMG

T2: human Fcγ receptor hFcgRIIb (human, UniProt P31994 43-217, limits assumed)
T2 construct: Construct used in the SPR assay is not described; also called FcγRIIb; FcγIIB
T2 sequence: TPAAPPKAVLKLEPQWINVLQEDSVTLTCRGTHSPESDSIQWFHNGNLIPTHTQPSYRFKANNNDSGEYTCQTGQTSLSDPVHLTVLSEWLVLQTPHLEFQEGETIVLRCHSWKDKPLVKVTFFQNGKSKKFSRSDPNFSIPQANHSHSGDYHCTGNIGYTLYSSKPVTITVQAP


How the values were obtained:
Assay in all cases: SPR, antibody captured on Protein A
[1] = target: T3, human Fcγ receptor hFcgRIa (human, UniProt P12314 16-292, limits assumed)
T3 construct: Construct used in the SPR assay is not described; also called hFcγRIa; FcγI
Experimental: (§1) The CH2 domain, which was modified in this examination, is known to be involved in interaction with several human Fcγ receptors (hereinafter denoted as hFcgRs) which affect effector functions. Therefore, the binding of TS1 and TS19 prepared by using the H chain of anti-IL6R produced in Example 2 to hFcgRs was measured, according to the method described in Reference Example 3.
(§2) Interactions between antibodies and hFcgRs (hFcgRIa, hFcgRIIa(R), hFcgRIIa(H), hFcgRIIb, hFcgRIIIa(F), and hFcgRIIIa(V)) were analyzed using Biacore T100 (GE Healthcare). HBS-EP+(GE Healthcare) was used for the running buffer, and the measurement temperature was set at 25° C. Protein A (Invitrogen) was immobilized by the amino coupling method, and an antibody of interest was captured thereon. Then, hFcγR solutions diluted using the running buffer were injected to allow interaction with the captured antibody at a flow rate of 30 μL/min for five minutes for hFcγRIa, and at a flow rate of 5 μL/min for one minute for the other hFcγRs. […] Since the hFcγR binding level depends on the amount of captured antibodies, the FcgR-binding levels were corrected so that the capture level of each antibody would be 200 RU (resonance unit) for hFcgRIa and 1000 RU (resonance unit) for the other hFcgRs. The captured antibodies were washed by allowing 10 mM glycine-HCl (pH 1.5) to react for 30 seconds at a flow rate of 30 μL/min to recycle the chip for reuse.

[2] = target: T1, human Fcγ receptor hFcgRIIa (H)
Experimental: as §1, §2

[3] = target: T4, human Fcγ receptor hFcgRIIIa (V) (human, UniProt P08637 fragment)
T4 construct: also called FcγRIIIa allotype V158; FcγIIIA
Experimental: as §1, §2

[4] = target: T3, human Fcγ receptor hFcgRIa; remark: listed apart in the source
T3 sequence (P12314 16-292 limits assumed): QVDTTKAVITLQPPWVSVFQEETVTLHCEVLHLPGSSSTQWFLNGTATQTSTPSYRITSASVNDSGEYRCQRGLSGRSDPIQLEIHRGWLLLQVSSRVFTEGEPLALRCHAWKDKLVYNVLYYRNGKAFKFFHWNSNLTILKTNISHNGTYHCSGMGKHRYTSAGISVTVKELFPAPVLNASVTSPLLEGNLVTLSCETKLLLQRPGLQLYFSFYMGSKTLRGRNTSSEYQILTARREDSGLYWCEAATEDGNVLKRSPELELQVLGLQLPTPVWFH
Experimental: (§3) Furthermore, binding ability to hFcgRs was measured by the method described in Reference Example 3.
as §2

[5] = target: T4, human Fcγ receptor hFcgRIIIa (V); remark: listed apart in the source
T4 sequence (P08637 other isoform, or with tags, fused parts or gaps limits assumed): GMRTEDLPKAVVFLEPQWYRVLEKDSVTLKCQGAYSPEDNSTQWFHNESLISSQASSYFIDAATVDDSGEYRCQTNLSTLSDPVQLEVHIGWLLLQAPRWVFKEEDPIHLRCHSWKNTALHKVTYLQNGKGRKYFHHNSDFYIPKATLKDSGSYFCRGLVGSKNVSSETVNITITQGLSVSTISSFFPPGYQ
Experimental: as §3, §2

[6] = target: T2, human Fcγ receptor hFcgRIIb
Experimental: as §3, §2

binding relative to G1 (=100) [1]	binding relative to G1 (=100) [2]	binding relative to G1 (=100) [3]	binding relative to G1 (=100) [4]	binding relative to G1 (=100) [5]	binding relative to G1 (=100) [6]	Binder
–	–	–	99.4	105	124	TS64 (antibody, anti-IL6R IgG1, G1d with M428W (EU)) heavy: QVQLQESGPGLVRPSQTLSLTCTVSGYSITSDHAWSWVRQPPGRGLEWIGYISYSGITTYNPSLKSRVTMLRDTSKNQFSLRLSSVTAADTAVYYCARSLARTTAMDYWGQGSLVTVSS[human IgG1 constant region with M428W (EU numbers) not shown] light: DIQMTQSPSSLSASVGDRVTITCRASQDISSYLNWYQQKPGKAPKLLIYYTSRLHSGVPSRFSGSGSGTDFTFTISSLQPEDIATYYCQQGNTLPYTFGQGTKVEIKRTVAAPSVFIFPPSDEQLKSGTASVVCLLNNFYPREAKVQWKVDNALQSGNSQESVTEQDSKDSTYSLSSTLTLSKADYEKHKVYACEVTHQGLSSPVTKSFNRGEC
–	–	–	101	96.8	–	TS65 (antibody, anti-IL6R IgG1, G1d with M428Y (EU)) heavy: QVQLQESGPGLVRPSQTLSLTCTVSGYSITSDHAWSWVRQPPGRGLEWIGYISYSGITTYNPSLKSRVTMLRDTSKNQFSLRLSSVTAADTAVYYCARSLARTTAMDYWGQGSLVTVSS[human IgG1 constant region with M428Y (EU numbers) not shown] light: DIQMTQSPSSLSASVGDRVTITCRASQDISSYLNWYQQKPGKAPKLLIYYTSRLHSGVPSRFSGSGSGTDFTFTISSLQPEDIATYYCQQGNTLPYTFGQGTKVEIKRTVAAPSVFIFPPSDEQLKSGTASVVCLLNNFYPREAKVQWKVDNALQSGNSQESVTEQDSKDSTYSLSSTLTLSKADYEKHKVYACEVTHQGLSSPVTKSFNRGEC
–	–	–	102	96.1	99	TS59 (antibody, anti-IL6R IgG1, G1d with N315A (EU)) heavy: QVQLQESGPGLVRPSQTLSLTCTVSGYSITSDHAWSWVRQPPGRGLEWIGYISYSGITTYNPSLKSRVTMLRDTSKNQFSLRLSSVTAADTAVYYCARSLARTTAMDYWGQGSLVTVSS[human IgG1 constant region with N315A (EU numbers) not shown] light: DIQMTQSPSSLSASVGDRVTITCRASQDISSYLNWYQQKPGKAPKLLIYYTSRLHSGVPSRFSGSGSGTDFTFTISSLQPEDIATYYCQQGNTLPYTFGQGTKVEIKRTVAAPSVFIFPPSDEQLKSGTASVVCLLNNFYPREAKVQWKVDNALQSGNSQESVTEQDSKDSTYSLSSTLTLSKADYEKHKVYACEVTHQGLSSPVTKSFNRGEC
–	–	–	102	98.9	169	TS50 (antibody, anti-IL6R IgG1, G1d with T250Y (EU)) heavy: QVQLQESGPGLVRPSQTLSLTCTVSGYSITSDHAWSWVRQPPGRGLEWIGYISYSGITTYNPSLKSRVTMLRDTSKNQFSLRLSSVTAADTAVYYCARSLARTTAMDYWGQGSLVTVSS[human IgG1 constant region with T250Y (EU numbers) not shown] light: DIQMTQSPSSLSASVGDRVTITCRASQDISSYLNWYQQKPGKAPKLLIYYTSRLHSGVPSRFSGSGSGTDFTFTISSLQPEDIATYYCQQGNTLPYTFGQGTKVEIKRTVAAPSVFIFPPSDEQLKSGTASVVCLLNNFYPREAKVQWKVDNALQSGNSQESVTEQDSKDSTYSLSSTLTLSKADYEKHKVYACEVTHQGLSSPVTKSFNRGEC

Second part, the binder before the results:

Binder	binding relative to G1 (=100) [1]	binding relative to G1 (=100) [2]	binding relative to G1 (=100) [3]	binding relative to G1 (=100) [4]	binding relative to G1 (=100) [5]	binding relative to G1 (=100) [6]
TS15 (antibody, anti-IL6R IgG1, G1d with H268K/D270F (EU)) heavy: QVQLQESGPGLVRPSQTLSLTCTVSGYSITSDHAWSWVRQPPGRGLEWIGYISYSGITTYNPSLKSRVTMLRDTSKNQFSLRLSSVTAADTAVYYCARSLARTTAMDYWGQGSLVTVSS[human IgG1 constant region with H268K D270F (EU numbers) not shown] light: DIQMTQSPSSLSASVGDRVTITCRASQDISSYLNWYQQKPGKAPKLLIYYTSRLHSGVPSRFSGSGSGTDFTFTISSLQPEDIATYYCQQGNTLPYTFGQGTKVEIKRTVAAPSVFIFPPSDEQLKSGTASVVCLLNNFYPREAKVQWKVDNALQSGNSQESVTEQDSKDSTYSLSSTLTLSKADYEKHKVYACEVTHQGLSSPVTKSFNRGEC	80.8	30.6	10.1	–	–	–
TS45 (antibody, anti-IL6R IgG1, G1d with T250F (EU)) heavy: QVQLQESGPGLVRPSQTLSLTCTVSGYSITSDHAWSWVRQPPGRGLEWIGYISYSGITTYNPSLKSRVTMLRDTSKNQFSLRLSSVTAADTAVYYCARSLARTTAMDYWGQGSLVTVSS[human IgG1 constant region with T250F (EU numbers) not shown] light: DIQMTQSPSSLSASVGDRVTITCRASQDISSYLNWYQQKPGKAPKLLIYYTSRLHSGVPSRFSGSGSGTDFTFTISSLQPEDIATYYCQQGNTLPYTFGQGTKVEIKRTVAAPSVFIFPPSDEQLKSGTASVVCLLNNFYPREAKVQWKVDNALQSGNSQESVTEQDSKDSTYSLSSTLTLSKADYEKHKVYACEVTHQGLSSPVTKSFNRGEC	–	–	–	105	84.7	150
TS47 (antibody, anti-IL6R IgG1, G1d with T250M (EU)) heavy: QVQLQESGPGLVRPSQTLSLTCTVSGYSITSDHAWSWVRQPPGRGLEWIGYISYSGITTYNPSLKSRVTMLRDTSKNQFSLRLSSVTAADTAVYYCARSLARTTAMDYWGQGSLVTVSS[human IgG1 constant region with T250M (EU numbers) not shown] light: DIQMTQSPSSLSASVGDRVTITCRASQDISSYLNWYQQKPGKAPKLLIYYTSRLHSGVPSRFSGSGSGTDFTFTISSLQPEDIATYYCQQGNTLPYTFGQGTKVEIKRTVAAPSVFIFPPSDEQLKSGTASVVCLLNNFYPREAKVQWKVDNALQSGNSQESVTEQDSKDSTYSLSSTLTLSKADYEKHKVYACEVTHQGLSSPVTKSFNRGEC	–	–	–	101	72	163
TS46 (antibody, anti-IL6R IgG1, G1d with T250I (EU)) heavy: QVQLQESGPGLVRPSQTLSLTCTVSGYSITSDHAWSWVRQPPGRGLEWIGYISYSGITTYNPSLKSRVTMLRDTSKNQFSLRLSSVTAADTAVYYCARSLARTTAMDYWGQGSLVTVSS[human IgG1 constant region with T250I (EU numbers) not shown] light: DIQMTQSPSSLSASVGDRVTITCRASQDISSYLNWYQQKPGKAPKLLIYYTSRLHSGVPSRFSGSGSGTDFTFTISSLQPEDIATYYCQQGNTLPYTFGQGTKVEIKRTVAAPSVFIFPPSDEQLKSGTASVVCLLNNFYPREAKVQWKVDNALQSGNSQESVTEQDSKDSTYSLSSTLTLSKADYEKHKVYACEVTHQGLSSPVTKSFNRGEC	–	–	–	99.2	89.6	–
TS55 (antibody, anti-IL6R IgG1, G1d with L309A (EU)) heavy: QVQLQESGPGLVRPSQTLSLTCTVSGYSITSDHAWSWVRQPPGRGLEWIGYISYSGITTYNPSLKSRVTMLRDTSKNQFSLRLSSVTAADTAVYYCARSLARTTAMDYWGQGSLVTVSS[human IgG1 constant region with L309A (EU numbers) not shown] light: DIQMTQSPSSLSASVGDRVTITCRASQDISSYLNWYQQKPGKAPKLLIYYTSRLHSGVPSRFSGSGSGTDFTFTISSLQPEDIATYYCQQGNTLPYTFGQGTKVEIKRTVAAPSVFIFPPSDEQLKSGTASVVCLLNNFYPREAKVQWKVDNALQSGNSQESVTEQDSKDSTYSLSSTLTLSKADYEKHKVYACEVTHQGLSSPVTKSFNRGEC	–	–	–	99.2	90.5	106

Read-outs that look alike come from different tables or passages of the source.
